# The supplement of paper PMC4967469
# By IC50 is meant the dose at which the fit gives 50% viability; where the fit passes the top or lowest dose, that dose stands as a limit. AUC sums up the same curve from the lowest dose to the 256-fold higher top dose; the more sensitive the line, the further below 1. For part of these data: Where the top dose is marked as inferred, it was derived from the fitted curves, not read from the paper.
# How the values were obtained:
# Experiment in all cases: Viability of human cancer cell lines after 72 h of drug (GDSC screen)
# [1] = compound: CN(Cc1cnc2nc(N)nc(N)c2n1)c1ccc(C(=O)N[C@@H](CCC(=O)O)C(=O)O)cc1 [Methotrexate]; settings: top dose 0.2 µM
# Protocol: (§1)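 Human cancer cell lines in 384-well plates, medium with 10% serum, drug for 72 h over a 256-fold dose range (nine 2-fold or five 4-fold steps up to the top dose). Adherent lines were fixed and stained with the nucleic acid dye Syto60, suspension lines read with resazurin; signal relative to control wells, capped at 0 and 100%. One two-parameter sigmoid per drug and line, fitted in a mixed model over all curves with the slope shared within a line.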
# [2] = compound: O=C(CCCCCCC(=O)Nc1ccccc1)NO [Vorinostat]; settings: top dose 10 µM
# Protocol: as §1
# [3] = compound: CNC(=O)c1ccccc1Sc1ccc2c(/C=C/c3ccccn3)n[nH]c2c1 [Axitinib]; settings: top dose 2 µM
# Protocol: as §1
# [4] = compound: CCc1c2c(nc3ccc(O)cc13)-c1cc3c(c(=O)n1C2)COC(=O)[C@]3(O)CC [SN-38]; settings: top dose 0.05 µM; top dose inferred
# Protocol: as §1
# [5] = compound: CC(C)(C)c1nc(-c2cccc(NS(=O)(=O)c3c(F)cccc3F)c2F)c(-c2ccnc(N)n2)s1 [Dabrafenib]; settings: top dose 10 µM
# Protocol: as §1
Cell Line,AUC [1],IC50 [1] [nM],AUC [2],IC50 [2] [nM],AUC [3],IC50 [3] [nM],AUC [4],IC50 [4] [nM],AUC [5],IC50 [5] [µM]
"H2722 (mesothelioma, adherent)",0.984,> 200,0.917,> 10000,0.927,> 2000,0.801,30.1,0.971,> 10
"H2731 (mesothelioma, adherent)",0.984,> 200,0.741,3420,0.861,> 2000,0.891,> 50,0.936,> 10
"H2795 (mesothelioma, adherent)",0.79,87.5,0.669,1830,0.757,678,0.608,6.16,0.965,> 10
"H2869 (mesothelioma, adherent)",0.984,> 200,0.864,> 10000,0.898,> 2000,0.854,> 50,0.938,> 10
"H3255 (lung adenocarcinoma, adherent)",0.962,> 200,0.947,> 10000,0.984,> 2000,0.791,27.3,0.943,> 10
"HA7-RCC (kidney, adherent)",0.977,> 200,0.859,9760,0.953,> 2000,0.435,2.03,0.784,4.71
"HARA (lung squamous cell carcinoma, adherent)",0.82,140,0.679,2160,0.907,> 2000,0.696,12.3,0.977,> 10
"HC-1 (hairy cell leukaemia, suspension)",0.887,> 200,0.858,7670,0.974,> 2000,0.473,2.64,0.904,> 10
"HCC202 (breast, adherent)",0.981,> 200,0.751,4530,0.892,> 2000,0.913,> 50,0.973,> 10
"HCC1143 (breast, adherent)",0.932,> 200,0.738,4020,0.94,> 2000,0.844,> 50,0.975,> 10
"HCC2157 (breast, suspension)",0.971,> 200,0.519,704,0.906,> 2000,0.967,> 50,0.983,> 10
"HCC2218 (breast, suspension)",0.942,> 200,0.673,2160,0.977,> 2000,0.913,> 50,0.981,> 10
"HCC-15 (lung squamous cell carcinoma, adherent)",0.974,> 200,0.663,2030,0.927,> 2000,0.886,> 50,0.918,> 10
"HCC-44 (lung adenocarcinoma, adherent)",0.959,> 200,0.729,2750,0.984,> 2000,0.659,8.53,0.978,> 10
"HCC-56 (large intestine, adherent)",0.898,> 200,0.827,6320,0.953,> 2000,0.824,30.6,0.982,> 10
"HCC-78 (lung adenocarcinoma, adherent)",0.886,> 200,0.669,2010,0.959,> 2000,0.468,2.52,0.981,> 10
"HCC-366 (non-small cell lung carcinoma, adherent)",0.951,> 200,0.803,5210,0.969,> 2000,0.842,37.1,0.983,> 10
"HCC-827 (lung adenocarcinoma, adherent)",0.928,> 200,0.8,5700,0.974,> 2000,0.901,> 50,0.972,> 10
"HD-MY-Z (Hodgkin lymphoma, adherent)",0.846,147,0.48,550,0.873,1930,0.504,3.21,0.788,4.41
"HDLM-2 (Hodgkin lymphoma, suspension)",0.885,> 200,0.619,1320,0.927,> 2000,0.747,15.7,0.918,> 10
"HDQ-P1 (breast, adherent)",0.951,> 200,0.887,> 10000,0.985,> 2000,0.896,> 50,0.972,> 10
"HEC-1 (endometrium, adherent)",0.976,> 200,0.686,2030,0.945,> 2000,0.794,22,0.984,> 10
"HMV-II (melanoma, adherent)",0.932,> 200,0.783,5230,0.981,> 2000,0.777,24.8,0.739,3.56
"HN (head and neck, adherent)",0.977,> 200,0.679,1910,0.959,> 2000,0.42,1.92,0.942,> 10
"HO-1-u-1 (head and neck, adherent)",0.934,> 200,0.636,1460,0.943,> 2000,0.676,9.48,0.96,> 10
"HSC-2 (head and neck, adherent)",0.838,121,0.699,2160,0.975,> 2000,0.332,1.11,0.988,> 10

Cell Line,AUC [1],IC50 [1] [nM],AUC [2],IC50 [2] [nM],AUC [3],IC50 [3] [nM],AUC [4],IC50 [4] [nM],AUC [5],IC50 [5] [µM]
"HT-3 (cervix, adherent)",0.773,79.2,0.73,2850,0.981,> 2000,0.468,2.56,0.984,> 10
"HT-115 (large intestine, adherent)",0.983,> 200,0.769,3450,0.971,> 2000,0.802,22,0.96,> 10
"HT-1197 (bladder, adherent)",0.964,> 200,0.836,8410,0.984,> 2000,0.969,> 50,0.968,> 10
"HUTU-80 (digestive system, adherent)",0.97,> 200,0.576,969,0.713,441,0.338,1.21,0.967,> 10
"Hs633T (fibrosarcoma, adherent)",0.988,> 200,0.526,724,0.914,> 2000,0.309,1.02,0.525,0.723
"Hs683 (glioma, adherent)",0.986,> 200,0.901,> 10000,0.948,> 2000,0.706,12,0.986,> 10
"Hs766T (pancreas, adherent)",0.97,> 200,0.723,3340,0.941,> 2000,0.955,> 50,0.87,> 10
"HuCCT1 (biliary tract, adherent)",0.982,> 200,0.81,6020,0.978,> 2000,0.658,9.03,0.638,1.58
"HuO9 (osteosarcoma, adherent)",0.935,> 200,0.659,1820,0.947,> 2000,0.531,3.83,0.956,> 10
"HuO-3N1 (osteosarcoma, adherent)",0.944,> 200,0.805,7070,0.939,> 2000,0.867,> 50,0.966,> 10
"HuP-T3 (pancreas, adherent)",0.982,> 200,0.664,1980,0.955,> 2000,0.825,39.2,0.974,> 10
"IA-LM (large cell lung carcinoma, adherent)",0.983,> 200,0.675,2060,0.952,> 2000,0.812,31,0.838,8.02
"IHH-4 (thyroid, semi-adherent)",0.981,> 200,0.658,1560,0.919,> 2000,0.491,2.97,0.118,0.0556
"IM-9 (myeloma, suspension)",0.612,24.2,0.696,2020,0.97,> 2000,0.485,2.87,0.939,> 10
"IMR-5 (neuroblastoma, adherent)",0.856,122,0.726,2420,0.932,> 2000,0.415,,0.973,> 10
"IST-MEL1 (melanoma, adherent)",0.784,103,0.766,4390,0.965,> 2000,0.472,2.58,0.461,0.481
"IST-SL1 (small cell lung carcinoma, semi-adherent)",0.869,193,0.649,1630,0.901,> 2000,0.857,42.7,0.981,> 10
"IST-SL2 (small cell lung carcinoma, suspension)",0.942,> 200,0.618,1310,0.918,> 2000,0.834,32.2,0.967,> 10
"JEG-3 (urogenital system, adherent)",0.98,> 200,0.747,2930,0.938,> 2000,0.734,13.4,0.985,> 10
"JHH-1 (liver, adherent)",0.982,> 200,0.528,751,0.963,> 2000,0.875,> 50,0.977,> 10
"JHH-2 (liver, adherent)",0.879,> 200,0.812,5880,0.986,> 2000,0.738,15.9,0.964,> 10
"JHH-4 (liver, adherent)",0.985,> 200,0.792,4500,0.977,> 2000,0.7,11.4,0.899,> 10
"JHH-6 (liver, adherent)",0.971,> 200,0.767,3780,0.984,> 2000,0.533,3.86,0.979,> 10
"JHH-7 (liver, adherent)",0.989,> 200,0.81,4860,0.94,> 2000,0.805,23.4,0.869,8.24
"JHOS-2 (ovary, adherent)",0.983,> 200,0.804,6040,0.965,> 2000,0.552,4.45,0.884,> 10
"JHOS-3 (ovary, adherent)",0.981,> 200,0.959,> 10000,0.981,> 2000,0.821,40,0.982,> 10
